Reference: the supplement of paper PMC4723716
Over roughly 3,600 compounds, “viability index relative to DMSO control” has its median near 0.81; the lowest 2% begin near 0.13. This is one part of the list.

tested on: Plasmodium falciparum NF54 stage V gametocytes; experiment: viability index relative to DMSO control (fraction); higher = less gametocyte killing; conditions: 1.25 µM, incubation time: 72 h
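Further: 384-well serum-free SaLSSA: MitoTracker Red CMXRos staining with saponin lysis, high-content imaging, treated-well particle count divided by plate-mean count of DMSO wells.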

Compared with Cc1ccc(NC(=O)c2c(I)cnn2C)cc1[N+](=O)[O-], COc1ccc(NC(=O)Cn2ncc3ccccc32)cc1OC is higher in viability index: 0.634 for the first, 0.751 for the second.

Compared with Brc1ccc2ncnc(NCC3CCCO3)c2c1 (centres undefined), Cc1ccc2[nH]c3c(NCCN4CCCC4)ncnc3c2c1 is lower in viability index: 1 for the first, 0.538 for the second.

Going from CCc1c2ccc(C)n2cc[n+]1CC to CCc1n(CC(=O)OC2CC(C)CCC2C(C)C)c2ccccc2[n+]1C (centres undefined), the viability index falls from 0.89 to 0.578.

First: CC(C)c1ccc(NC(=O)C=Cc2ccccc2Cl)cc1
Second: Cc1cccc(NC(=O)c2ccc3ccccc3n2)n1
The viability index of the first is higher: 0.734 for the first, 0.529 for the second.

Compared with CC[n+]1c(C=Cc2ccc(C)cc2)ccc2ccccc21, CCN1C=CC(=Cc2ccc3cc(C)ccc3[n+]2C)C=C1 is higher in viability index: 0.826 for the first, 0.911 for the second.

First: Cn1nc(C(F)(F)F)c(C(=O)Nc2cccc(C(F)(F)F)c2)c1SCc1ccc(Cl)cc1
Second: O=C(COc1ccc(Cl)cc1)Nc1cccc(-c2nc3ncccc3o2)c1
The viability index of the first is higher: 1.21 for the first, 0.857 for the second.

First: COc1ccc(-n2c(SC)nc3sc4c(c3c2=O)CCN(Cc2ccccc2)C4)cc1
Second: COc1cc(C=C2SC(=Nc3ccccc3)NC2=O)ccc1OCc1ccccc1F
The viability index of the first is lower: 0.964 for the first, 1.12 for the second.

First: Cc1cccc(C)c1NC(=O)CN1C(=O)C(C)(C)Oc2ccc(C(=O)NC(C)(C)C)cc21
Second: COC(=O)CC(NC(=O)c1ccc(C)cc1)c1ccc2c(c1)OCO2 (centres undefined)
The viability index of the first is higher: 0.826 for the first, 0.718 for the second.

Compared with Cc1cc(C)nc(NC(=N)Nc2ccccc2O)n1, Cc1nc(NC(=N)N)nc2ccccc12 is higher in viability index: 0.868 for the first, 1.12 for the second.

First: O=C(COc1ccccc1)Nc1nccs1
Second: COC(=O)c1c(-c2ccccc2Cl)csc1N
The viability index of the first is higher: 0.996 for the first, 0.873 for the second.

Going from O=C(Nc1cccc(N2CCC(NCC3CCCCC3)CC2)c1)C1CC1 to O=C(Nc1ccccc1C(F)(F)F)N1CCC(N2CCCCC2)CC1, the viability index rises from 0.933 to 1.14.

First: CCCCN(CC)C(=O)CSc1nc2ccccc2c(=O)n1Cc1ccco1
Second: Cc1ccc(CNC(=O)CSc2nc3ccsc3c(=O)n2CCCCCC(=O)NCCc2ccccc2)cc1
The viability index of the first is lower: 0.819 for the first, 0.83 for the second.

Compared with CCOC(=O)c1ccc(NC(=O)c2sc(NC(=O)c3cc(OC)c(OC)c(OC)c3)c(C(=O)OCC)c2C)cc1, COc1cc(C(=O)Nc2c3c(nn2-c2cc(C)cc(C)c2)CSC3)cc(OC)c1OC is lower in viability index: 0.985 for the first, 0.636 for the second.

First: CCCOC(=O)C1=C(C)NC2=C(C(=O)CC(c3ccc(OC)c(OC)c3)C2)C1c1ccc(Cl)cc1Cl (centres undefined)
Second: COC(=O)C1=C(C)NC2=C(C(=O)CC(c3ccc(OC)c(OC)c3)C2)C1c1cccc(O)c1 (centres undefined)
The viability index of the first is lower: 0.243 for the first, 0.81 for the second.

Going from O=[N+]([O-])c1ccc(Nc2nc(NN=Cc3ccccc3I)nc(Nc3ccccc3)n2)cc1 to Clc1ccc(Nc2nc(Nc3ccc(Cl)cc3)c3ccccc3n2)cc1, the viability index rises from 0.985 to 1.01.

First: CCn1c2c(c(=N)c3ccccc31)CCC2
Second: N=c1ccn(CC(=O)N2CCCc3ccccc32)c2ccccc12
The viability index of the first is higher: 1.09 for the first, 0.533 for the second.

First: Cc1ccc[n+](C(C)C(=O)c2ccc(-c3ccccc3)cc2)c1 (centres undefined)
Second: Cc1ccc(-n2c(-c3ccccc3)cc(C=NNC(=O)c3cccc(O)c3)c2-c2ccccc2)cc1
The viability index of the first is lower: 0.772 for the first, 0.9 for the second.

First: CCCCCc1ccc(-c2cn3nc(CCCCC)sc3n2)cc1
Second: Cc1nc2cc(-c3ccc(Br)cc3)nn2c(O)c1C
The viability index of the first is lower: 0.726 for the first, 0.906 for the second.

Compared with CCOC(=O)c1cnn(-c2ccnc3cc(Cl)ccc23)c1CNC(C)c1ccco1 (centres undefined), CCOC(=O)c1ccc(N2C(=O)c3[nH]nc(C)c3C2c2ccccc2OC)cc1 (centres undefined) is lower in viability index: 1.4 for the first, 0.715 for the second.

Compared with Cc1ccc(F)cc1NC(=O)c1cc(Cl)ccc1Nc1ccccc1, OCCNc1nc(Nc2ccc(Cl)cc2)nc2ccccc12 is higher in viability index: 0.343 for the first, 1.31 for the second.

First: COc1cccc2c1OCC(CN1CCC(C(=O)Nc3ccc(-n4cccn4)cc3)CC1)=C2
Second: c1ccc(CN2CCC(Nc3ncnc4cc(-c5ccccc5)sc34)CC2)cc1
The viability index of the first is higher: 1.03 for the first, 0.726 for the second.

Going from Oc1cccc2ccc[n+](CC(O)Cn3c4ccccc4c4ccccc43)c12 (centres undefined) to c1ccc2c(c1)ccc1cc3cccc[n+]3cc12, the viability index falls from 0.757 to 0.0821.

Going from O=S(=O)(ON=C1CCCc2sc(Cl)cc21)c1ccccc1 to CC(C(=O)NN=C1CCN(C)CC1)N(c1ccccc1)S(C)(=O)=O (centres undefined), the viability index rises from 0.649 to 0.917.

First: CC(=O)c1ccc(OCc2cc(C(=O)N3CCCCC3c3cccnc3)no2)cc1 (centres undefined)
Second: COc1ccc(-c2csc3nc(COc4cccc(C)c4)nn23)c(O)c1
The viability index of the first is lower: 0.673 for the first, 0.687 for the second.

Compared with COc1ccc(C(=O)n2nc(N)c3cc4ccc(C)cc4nc32)cc1[N+](=O)[O-], CCOC(=O)C1=C(C)NC2=C(C(=O)CC(c3ccc(OC)c(OC)c3)C2)C1c1ccc([N+](=O)[O-])cc1 (centres undefined) is lower in viability index: 0.791 for the first, 0.336 for the second.

Compared with CCCC(C(=O)OCC)C(C)=NNc1ccccc1[N+](=O)[O-] (centres undefined), CCc1ccccc1NC(=O)C1c2ccccc2C(=O)N(CC(C)C)C1c1cccs1 (centres undefined) is lower in viability index: 0.692 for the first, 0.61 for the second.

First: c1cc(-c2nc3ccccc3[nH]2)nc(-c2nc3ccccc3[nH]2)c1
Second: Cc1cc([N+](=O)[O-])ccc1-c1ccc(C(=O)Nc2ccc(-c3nc4ccccc4[nH]3)cc2)o1
The viability index of the first is higher: 0.946 for the first, 0.622 for the second.

First: Cc1ccc(-c2nnc(N3CCOCC3)c3ccccc23)cc1S(=O)(=O)N1CCN(C)CC1
Second: Cc1cc(N2CCN(C)CC2)nc2ccc(NC(=O)c3ccc(Br)o3)cc12
The viability index of the first is lower: 0.883 for the first, 0.924 for the second.

Going from CC(C)(C)NC(=S)Nc1cccc(Cl)c1Cl to CC(NCCN1CCNCC1)c1cc(C(C)(C)C)cc2c1CCC2(C)C (centres undefined), the viability index falls from 0.755 to 0.104.

Compared with COc1ccc(-c2n(C)c3ccccc3[n+]2CC(=O)OC2CC(C)CCC2C(C)C)cc1 (centres undefined), CCN1C(=Cc2ccc3cc(OC)ccc3[n+]2CC)Sc2ccc(NC(C)=O)cc21 is higher in viability index: 0.376 for the first, 0.803 for the second.

First: CCCN1CCC(NC(c2ccccc2)c2ccc(Cl)cc2)CC1 (centres undefined)
Second: CN1CCCN(C(=O)C2CC23CCN(Cc2ccc(N(C)c4ccccc4)cc2)CC3)CC1 (centres undefined)
The viability index of the first is higher: 0.812 for the first, 0.548 for the second.

Going from COc1cccc(OCCN2CCN(c3ncnc4c3cnn4-c3ccccc3)CC2)c1 to COc1ccc(CNc2ncnc3c2[nH]c2cc(OC)ccc23)cc1, the viability index falls from 1.09 to 0.74.

First: NC(Cc1ccccc1)C(=O)N1CCn2c(nc(-c3ccccc3)c2Nc2ccc3c(c2)OCO3)C1 (centres undefined)
Second: NS(=O)(=O)c1ccc(CCNC(=O)C=Cc2ccc3c(c2)OCO3)cc1
The viability index of the first is lower: 0.179 for the first, 1.2 for the second.

Compared with N#Cc1cc2nc3c(nc2cc1C#N)-c1ccccc1C3=O, Cc1ccc(S(=O)(=O)N=C2C=C(Sc3nc[nH]n3)C(=O)c3ccccc32)cc1 is higher in viability index: 0.0308 for the first, 1.03 for the second.

First: CCOC(=O)C1=C(C)NC2=C(C(=O)CC(c3ccc(OC)c(OC)c3)C2)C1c1ccc(SC)cc1 (centres undefined)
Second: CC1=C(C(=O)OC(C)C)C(c2ccc(F)cc2)C2=C(CC(c3ccc(Cl)cc3)CC2=O)N1 (centres undefined)
The viability index of the first is higher: 0.985 for the first, 0.687 for the second.

Compared with Cc1cccc(NC(c2ccncc2)c2ccc3cccnc3c2O)n1 (centres undefined), CC(C)Nc1nc(-c2cccnc2)nc2ccccc12 is higher in viability index: 0.75 for the first, 1.12 for the second.

Compared with COCCN1Cc2cccc(C(=O)Nc3ccc4c(c3)OCCO4)c2C1=O, CCN1CCN(Cc2c(O)ccc3c(=O)c(Oc4ccccc4Br)c(C(F)(F)F)oc23)CC1 is lower in viability index: 0.992 for the first, 0.672 for the second.

Compared with CCCCN(CC)CCNC(=O)C1c2ccccc2C(=O)N(Cc2ccc(F)cc2)C1c1ccc(OC)cc1 (centres undefined), COc1cc(C2Nc3ccc4ccccc4c3C3=C2C(=O)CC(C)(C)C3)ccc1Oc1ccc([N+](=O)[O-])cc1C(F)(F)F (centres undefined) is lower in viability index: 0.679 for the first, 0.449 for the second.

Going from OCCNc1nc(Nc2ccc(Br)cc2)nc2ccccc12 to C[n+]1ccccc1C=Cc1cc(Br)ccc1O, the viability index falls from 0.84 to 0.819.

First: COc1ccc(CN(Cc2cc3cc(OC)c(OC)cc3[nH]c2=O)C(=S)NCCc2ccc(OC)c(OC)c2)cc1
Second: COc1cc2c(cc1OC)C1=NC(=O)C(C(C)C)N1C(SCc1csc(Cl)n1)=N2 (centres undefined)
The viability index of the first is higher: 0.979 for the first, 0.767 for the second.

Compared with OCCN(CCO)CC(O)Cn1c2ccc(Br)cc2c2cc(Br)ccc21 (centres undefined), CC1=C(C(=O)OC(C)C)C(c2ccc(Br)cc2)C2=C(CC(c3ccc(Cl)cc3)CC2=O)N1 (centres undefined) is lower in viability index: 0.917 for the first, 0.845 for the second.

Going from CCN1CCC(N2C[C@H](n3cc(C(=O)OC)nn3)C[C@H]2C(=O)NCc2cccc(C(F)(F)F)c2)CC1 to CCOc1ccc(-c2noc(-c3ccncc3)n2)cc1OCC, the viability index falls from 1.21 to 0.956.
